Whole data set: some 33,000 sequences, median “E-score (-0.5 to 0.5)” near -0.012, cut for the highest 2% near 0.29. The list shows a part of the results.
target: T1, Ybr033w (UniProt P38073); test: PBM E-score (8-mer binding enrichment) (E-score (-0.5 to 0.5)); higher = stronger / more preferred TF binding; most listed sequences are background and not binding sites; details: protein concentration: 200 nM; construct: GST-full length
T1 sequence: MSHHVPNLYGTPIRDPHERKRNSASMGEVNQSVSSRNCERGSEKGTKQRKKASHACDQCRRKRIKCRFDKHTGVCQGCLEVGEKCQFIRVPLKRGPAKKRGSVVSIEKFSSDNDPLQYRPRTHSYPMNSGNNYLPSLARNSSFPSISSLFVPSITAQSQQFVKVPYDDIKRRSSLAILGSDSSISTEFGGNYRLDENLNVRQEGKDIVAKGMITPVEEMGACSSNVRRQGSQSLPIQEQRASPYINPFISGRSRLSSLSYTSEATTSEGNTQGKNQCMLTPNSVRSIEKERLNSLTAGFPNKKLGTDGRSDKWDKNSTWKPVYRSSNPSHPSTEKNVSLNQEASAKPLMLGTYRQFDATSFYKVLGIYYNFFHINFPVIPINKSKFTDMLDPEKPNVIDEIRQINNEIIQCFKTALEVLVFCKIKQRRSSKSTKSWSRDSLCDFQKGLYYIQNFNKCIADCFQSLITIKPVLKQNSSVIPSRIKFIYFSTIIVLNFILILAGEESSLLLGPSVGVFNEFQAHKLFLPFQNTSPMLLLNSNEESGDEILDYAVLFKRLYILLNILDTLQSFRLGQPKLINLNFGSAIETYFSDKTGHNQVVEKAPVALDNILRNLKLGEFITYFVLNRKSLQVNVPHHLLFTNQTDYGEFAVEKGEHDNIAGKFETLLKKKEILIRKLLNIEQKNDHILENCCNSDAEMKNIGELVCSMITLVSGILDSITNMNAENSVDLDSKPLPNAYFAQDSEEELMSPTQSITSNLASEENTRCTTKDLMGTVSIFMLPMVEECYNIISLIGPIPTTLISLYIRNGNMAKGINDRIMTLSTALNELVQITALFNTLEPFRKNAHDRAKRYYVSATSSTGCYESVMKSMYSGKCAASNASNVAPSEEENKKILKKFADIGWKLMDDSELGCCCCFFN
Method in brief: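 Universal all-10-mer Agilent arrays, fresh or stripped once, were converted to double-stranded form by primer extension. GST-tagged yeast transcription factors from PURExpress in vitro transcription/translation, full-length or DNA-binding domain only, were applied at about 100-200 nM and detected with fluorescent anti-GST. After masliner normalisation, the Universal PBM Analysis Suite scored each ungapped eight-base word together with its reverse complement by E-score.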

| Sequence | PBM E-score |
| --- | --- |
| CCCTACAG | -0.215 |
| GATTCAGA | 0.161 |
| ACGCTTCA | -0.209 |
| ATCTTCAC | 0.154 |
| GCGCGATA | 0.181 |
| AGGACAAA | 0.17 |
| TGCAGAAA | 0.123 |
| AGTAGGTG | -0.107 |
| TCGGGACA | -0.00946 |
| CATCTATC | 0.0429 |
| GACCCTGA | -0.199 |
| AAACCGCA | -0.147 |
| CCCGGTTC | -0.0468 |
| CACGTTCA | -0.153 |
| AAATTGCA | 0.146 |
| GTCTACGA | -0.116 |
| AGTTGTCC | 0.0101 |
| ATTGAGTC | -0.0117 |
| GTCTAACA | -0.194 |
| CGGAACGA | 0.0838 |
| CAACTCTC | 0.0899 |
| CCAATCCC | 0.0151 |
| ACTATCTC | 0.206 |
| CGTATGTC | -0.0971 |
| AAGTTAAC | 0.224 |

| Sequence | PBM E-score |
| --- | --- |
| GTTTCTAA | 0.168 |
| CAGTGCAA | 0.178 |
| GTTTACTA | 0.267 |
| GGCGTTTA | -0.127 |
| TACACCCA | -0.00079 |
| CAAATTTG | -0.0425 |
| ACCAGTCA | 0.00132 |
| CACCATAC | 0.159 |
| GTTGACGA | -0.0199 |
| ATAAATTA | 0.375 |
| TTAATGAA | 0.195 |
| CTATCAAC | 0.181 |
| GCTTCCCA | -0.191 |
| AAAGCTTC | -0.0172 |
| ATATCGAT | 0.238 |
| CTATGCTA | 0.0835 |
| ATGTTGAC | 0.17 |
| CAGGGGGA | -0.31 |
| GAGTCTAC | -0.0896 |
| CCTACACG | -0.17 |
| CCTTGCGC | -0.0912 |
| CCAAAGGG | -0.17 |
| ACAGCAGA | -0.0922 |
| GGACATCC | -0.0509 |
| ACATCTTA | 0.101 |

| Sequence | PBM E-score |
| --- | --- |
| AATTTCAC | 0.214 |
| ACTCGTCT | 0.11 |
| GCGGAGCA | -0.0369 |
| AAGCACTC | -0.0754 |
| CGCATAGC | -0.193 |
| ACACTGTC | -0.158 |
| ACGAAGAT | -0.0249 |
| TCGGGGAA | 0.0246 |
| CCCACGAC | -0.239 |
| CCAACTCC | 0.0716 |
| AATTGAGC | -0.0899 |
| CGGGTTAG | -0.265 |
| AAGGTCAG | -0.0273 |
| AGTCCGCG | -0.253 |
| CGAGGGAA | -0.0841 |
| CTATTGGC | -0.0572 |
| GGGAACAA | 0.381 |
| GAGTGAGC | -0.125 |
| ATCATGTC | 0.133 |
| ATAATAGG | 0.226 |
| ACTGTACT | -0.162 |
| CAGAGGGG | -0.251 |
| CTCTATTA | 0.152 |
| AAGGCTAG | 0.0657 |
| ACCCTGTA | -0.0511 |

| Sequence | PBM E-score |
| --- | --- |
| CGTTGGCC | -0.196 |
| ATCGTTAA | 0.24 |
| CTATTTTA | 0.252 |
| GTAATGTA | 0.0536 |
| CCTGGTAC | -0.0749 |
| AGTGGTCC | -0.141 |
| CCAACAAG | 0.0698 |
| CGTTACAG | -0.0249 |
| AGGGTTCA | 0.0464 |
| GTTACACA | 0.00412 |
| TACCGACA | -0.00649 |
| AAATGGTC | 0.262 |
| CGCATTCC | -0.275 |
| AAAGCCAT | 0.162 |
| ATCTCAGC | -0.00333 |
| AACATCAG | 0.173 |
| CACAGGGC | -0.172 |
| CACGGCAA | 0.0311 |
| CGTGCCCA | -0.0995 |
| TACGGAAA | 0.24 |
| ATCGCAGA | -0.175 |
| ACTAAGCG | -0.117 |
| ACCCTAAC | 0.0314 |
| GTGAGTGA | -0.159 |
| GACTACAC | -0.038 |

| Sequence | PBM E-score |
| --- | --- |
| GCCAAAGC | -0.169 |
| ATCGTTTG | 0.0414 |
| AATGATAG | 0.215 |
| CTAACTTA | 0.0795 |
| GCACCTGC | 0.0281 |
| GAACCAGC | 0.131 |
| ATAGTGTG | 0.179 |
| CACGGATC | -0.00514 |
| ACCTAAAT | 0.198 |
| GGGTCTAC | -0.118 |
| GGTCAGGA | -0.0921 |
| CTGTTAGA | -0.0205 |
| CTTCCTAC | -0.181 |
| GGATAGCA | -0.00024 |
| TAAAACCA | 0.106 |
| GCATGCAA | -0.0121 |
| ATCTGCGC | -0.136 |
| ACGCGCTA | 0.0816 |
| CAGGCAAG | -0.105 |
| CTTCAGTA | 0.0771 |
| CGCCGCCC | -0.252 |
| CTGCAGCA | -0.0314 |
| AAGGTAGG | -0.054 |
| TGGTGAAA | -0.0357 |
| CAGGTCAA | -0.148 |

| Sequence | PBM E-score |
| --- | --- |
| GGACGCCC | -0.363 |
| AACGGTCT | -0.0773 |
| AAACACTG | 0.127 |
| GAGGAAAA | 0.199 |
| CGATCATA | 0.0546 |
| CCAGGTCG | -0.105 |
| GTTAATAA | 0.329 |
| CTGTCGAC | -0.176 |
| GCAAGACA | -0.0734 |
| TGGCCCAA | -0.176 |
| CCACGGCG | -0.16 |
| CCGGTGGA | -0.0838 |
| AGTGATTG | 0.0992 |
| ACGAGTGG | -0.135 |
| ACGTCGTA | -0.204 |
| ATTCTAGA | 0.225 |
| ACGACACT | 0.0431 |
| AGCCCATC | -0.122 |
| ACAGTCGC | -0.136 |
| AGGCTCGA | 0.0227 |
| GGGCAGCA | -0.243 |
| CCGACCAA | -0.0529 |
| CCACTCTC | -0.0585 |
| GCTATGAC | 0.042 |
| AGCCAATC | 0.0182 |

| Sequence | PBM E-score |
| --- | --- |
| ACGTCAGC | 0.0468 |
| CCGTCACG | -0.0881 |
| GAGTGGAA | 0.134 |
| AGGGCCAA | -0.373 |
| CGTAGTAA | 0.0993 |
| ACAGACGA | 0.085 |
| AATGCGAT | -0.0207 |
| AATCCAGG | 0.123 |
| TCCGAGCA | 0.0809 |
| GAAGGCAA | 0.0233 |
| AAGATATG | 0.241 |
| ACCTAGCA | 0.0895 |
| CCAAAGGC | -0.161 |
| ACGGTTTC | -0.0349 |
| ACGTCTCA | 0.102 |
| GCACATAC | -0.235 |
| CACGTGAG | -0.131 |
| CCGCAAAG | 0.0497 |
| GCCCGATA | -0.169 |
| CATGGATC | 0.0252 |
| AGTATGCC | -0.0467 |
| CTAGCTCA | 0.00463 |

From the supplement of paper PMC3334620
